# Experimental data published in PubChem BioAssay AID624418 (National Center for Advancing Translational Sciences (NCATS), 2012).
# The whole screen tested about 410,000 compounds, of which about 530 (0.13%) were called active. This list was built around the results that the source calls inconclusive (neither active nor inactive); the mix of calls is not that of the screen. Calls follow the shape of the dose curve; as a rule, active = well fitted inhibition curve with a large enough effect; inconclusive = small, poorly fitted or top-dose-only effect, or another doubt; inactive = no such curve, though single readings can be large or run the other way. Potencies beside an inconclusive call are fits to weak or partial responses and may not hold up.
# Experiment: qHTS of GLP-1 Receptor Inverse Agonists: Cytotox Screen
# Settings: HEK293 cAMP-luciferase reporter cells, luminescence, 24 h; activity change, negative = inhibition: at 38.3 µM (top of the series) unless noted
# Method in brief: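 MLSMR compounds, 24 hr on cells at 37 deg C/5% CO2; luminescence after luciferase reagent (12 min RT). Inhibition counted as the undesired cytotoxic outcome.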
# % is scaled to controls: 0 for no effect and ±100 for the full control effect; potency is read from the fitted curve at half-maximal effect.
Compound,Potency,"activity change, negative = inhibition"
COc1ccc(C2Oc3ccccc3C3=C2C(c2cccs2)n2ncnc2N3)cc1 (centres undefined),"inconclusive: 10 µM [inhibitor, single point]",–
C=CC[C@@H](CC(=O)N(CCO)Cc1ccccc1)C(=O)N[C@@H](COC(=O)[C@@H](CC=C)CC(=O)OC(C)(C)C)Cc1c[nH]c2ccccc12,"inconclusive: 28.2 µM [inhibitor, single point]",–
Nc1c(S(=O)(=O)O)cc(NC(=O)c2ccccc2)c2c1C(=O)c1ccccc1C2=O,"inconclusive: 8.91 µM [inhibitor, partial curve]",–
Fc1cccc2sc(Nc3nc4c(F)cccc4s3)nc12,"inconclusive: 28.2 µM [inhibitor, single point]",–
COc1ccccc1NC(=S)NC(=O)/C=C/c1cccs1,"inconclusive: 28.2 µM [inhibitor, single point]",–
Cc1c(Cl)cccc1NC(=S)NCC(C)C,"inconclusive: 28.2 µM [inhibitor, single point]",–
Cc1ccc(C(=O)COC(=O)c2ccncc2)cc1[N+](=O)[O-],–,inactive: -5.33%
CCOc1ccc(OCc2ccc(C(=O)NN=Cc3ccc[nH]3)cc2)cc1,active: 2.24 µM,–
O=S(=O)([N-]c1nc2ccccc2nc1-[n+]1ccc(Cc2ccccc2)cc1)c1ccc(Br)s1,active: 10 µM,–
CC(=O)Oc1ccc(N2C(=O)C3C(C2=O)C(C(=O)c2ccc(Cl)cc2)N2CCCC32)cc1 (centres undefined),"inconclusive: 11.2 µM [inhibitor, single point]",–
Cc1ccc2nc(N(CCCN(C)C)C(=O)c3ccc(S(=O)(=O)N4CCCCCC4)cc3)sc2c1,"inconclusive: 28.2 µM [inhibitor, single point]",–
c1ccc2c(c1)oc1c(Nc3ccc(CN4CCOCC4)cc3)ncnc12,"inconclusive: 10 µM [inhibitor, partial curve]",–
CCN(Cc1ccccc1)C(=O)c1ccc(NC(=O)c2ccc(OC)cc2)cc1,–,inactive: 2.35%
CC1CCN(c2nn3c(=O)c(C(=O)NCCCOC(C)C)cnc3s2)CC1,–,inactive: -14%
CC1=C(C(=O)OCc2ccccc2)C(c2ccc(C(C)(C)C)cc2)NC(=O)N1CCCCCC(=O)O (centres undefined),"inconclusive: 28.2 µM [inhibitor, single point]",–
CC(=O)Nc1ccc2nc(CN3CCN(Cc4ccc(F)cc4)C(CCO)C3)ccc2c1 (centres undefined),–,inactive: -9.73%
c1ccc(CNc2nc3ccccc3[nH]2)cc1,"inconclusive: 5.01 µM [inhibitor, full curve]",–
CN(Cc1ccccc1)CC(O)COc1ccc(CNCc2cccnc2)cc1 (centres undefined),–,inactive: -28.7%
O=C(CCC(=O)N1CCN(C2CCCCC2)CC1)Nc1nnc(C(F)(F)F)s1,–,inactive: 1.66%
CCOc1ccc(/C=N/Nc2ccccn2)cc1,"inconclusive: 28.2 µM [inhibitor, single point]",–
Cc1ccc(-n2nc(C(=O)Nc3ccc(F)cc3F)c3c4ccccc4n(C)c3c2=O)cc1,–,inactive: -1.75%
Cc1nc([N+](=O)[O-])c(NCCO)n1Cc1ccccc1,–,inactive: -17.5%
COc1ccccc1NC(=O)CN1CCN(CC(=O)Nc2ccc(Cl)c(C(F)(F)F)c2)CC1,"inconclusive: 10 µM [inhibitor, partial curve, poor fit]",–

Compound,Potency,"activity change, negative = inhibition"
Cc1ccc(C(=O)NC(=S)Nc2ccc(N3CCOCC3)cc2)cc1,"inconclusive: 10 µM [inhibitor, single point]",–
CC(C)(C)C1CCc2c(sc(NC(=O)c3cc4ccccc4c(=O)o3)c2C(N)=O)C1 (centres undefined),–,inactive: -7.52%
COC(=O)C1=C(C)NC(=O)/C1=C\c1cc(C)n(-c2ccccc2F)c1C,"inconclusive: 28.2 µM [inhibitor, single point]",–
CCc1ccc(CN2C(=O)CCC2(C)C(=O)NC2CCCC2)cc1 (centres undefined),"inconclusive: 10 µM [inhibitor, single point]",–
CCn1c(CCCOc2ccc(Cl)cc2Cl)n[nH]c1=S,"inconclusive: 3.55 µM [inhibitor, partial curve]",–
COCCCN(C(=S)Nc1cc(Cl)cc(Cl)c1)C(C)c1ccccn1 (centres undefined),"inconclusive: 28.2 µM [inhibitor, single point]",–
COc1ccc(OCC(=O)N2N=C(C)CC2(O)C(F)(F)F)cc1 (centres undefined),"inconclusive: 10 µM [inhibitor, partial curve, poor fit]",–
O=C(NNC1=C(C(=O)C(F)(F)F)CCC1)c1cccc(O)c1,–,inactive: 1.43%
N#C/C(=N\Nc1ccc(Cl)cc1)C(=N)N1CCCCC1,"inconclusive: 8.91 µM [inhibitor, partial curve, poor fit]",–
COc1ccc(Cn2ccc3nc(C)c(C(=O)Nc4ccc(OC)cc4)cc3c2=O)cc1,–,inactive: -7.73%
CC(C)c1ccc(/C=C2\SC(=S)N(CCC(=O)NCCCn3ccnc3)C2=O)cc1,"inconclusive: 22.4 µM [inhibitor, single point]",–
COc1ccc(CCNC(=O)CCn2c(=O)c3ccccc3n(Cc3ccccc3F)c2=O)cc1OC,–,inactive: 1.15%
Cc1ccc(NC2=C/C(=N\S(=O)(=O)c3cccs3)c3ccccc3C2=O)c(C)c1,"inconclusive: 5.62 µM [inhibitor, partial curve, poor fit]",–
O=C(NC1CCCCC1)C(c1ccnc2ccccc12)n1c(=O)c(-c2ccco2)nc2ccccc21 (centres undefined),–,inactive: -4.28%
CN(CC(O)COc1ccc(OCC(O)CN(C)C2CCCCC2)cc1)C1CCCCC1 (centres undefined),"inconclusive: 3.98 µM [inhibitor, partial curve, poor fit]",–
CCc1sc(C(=O)Nc2nc(-c3ccccn3)cs2)cc1C,"inconclusive: 10 µM [inhibitor, partial curve]",–
COc1cccc(NC(=S)N/N=C2\CC3CCC2(C)C3(C)C)c1 (centres undefined),"inconclusive: 2 µM [inhibitor, partial curve, poor fit]",–
CC(O)CNc1nc2sc3c(c2c(=O)n1CCc1ccccc1)CCCCC3 (centres undefined),"inconclusive: 11.2 µM [inhibitor, single point]",–
Cc1cc(C(=O)CSc2nnc(NCc3ccccc3)s2)c(C)n1C,"inconclusive: 6.31 µM [inhibitor, partial curve, poor fit]",–
CC(C)c1ccc(OCC(=O)Nc2cccc(C(=O)Nc3ccccc3C(=O)O)c2)cc1,–,inactive: -16%
Cc1ccc(S(=O)(=O)NCCCCCC(=O)Nc2ccccc2)cc1,–,inactive: -3.11%
COc1ccc(NC(=S)NC(=O)c2cncc(Br)c2)cc1,"inconclusive: 22.4 µM [inhibitor, single point]",–
CCOc1ccc(CCNC(=O)c2cc3c(s2)-c2ccccc2OC3)cc1OCC,–,inactive: -16.2%

Compound,Potency,"activity change, negative = inhibition"
O=C1CC(C(=O)Nc2ccc(Cl)cc2)S/C(=N\N=C\c2ccco2)N1 (centres undefined),"inconclusive: 28.2 µM [inhibitor, single point]",–
COc1cccc(CNC(=O)Cc2ccc(-n3c(=O)[nH]c4ccccc4c3=O)cc2)c1,"inconclusive: 25.1 µM [inhibitor, single point]",–
CC(C)Cc1nc(N2CCCCC2)c(C#N)c2c1CCC2,–,inactive: 30.7%
CS(=O)(=O)N1Cc2ccccc2CC1C(=O)OCC(=O)Nc1ccc2ccccc2c1 (centres undefined),–,inactive: 5.76%
Cc1ccc(NC(=S)NC(=O)c2c(-c3ccccc3Cl)noc2C)cc1,–,inactive: 11.8%
Cc1cccc(N(C(=O)Cn2nnc3ccccc32)C(C(=O)NC(C)(C)C)c2ccsc2)c1 (centres undefined),"inconclusive: 17.8 µM [inhibitor, single point]",–
O=C(NNC(=O)c1ccccc1O)c1ccccc1O,"inconclusive: 7.08 µM [inhibitor, partial curve, poor fit]",–
Cc1ccccc1OCc1nc(-c2ccc(NC(=O)c3ccc4c(c3)OCO4)cc2)no1,"inconclusive: 11.2 µM [inhibitor, single point]",–
O=C(NCc1ccco1)C1Cc2c(-c3cccc(F)c3)ccnc2O1 (centres undefined),"inconclusive: 0.355 µM [inhibitor, full curve]",–
Cc1cccc(CNC(=O)c2ccc(NC(=O)N3CC(C)Sc4ccccc43)cc2)c1 (centres undefined),–,inactive: 3.27%
C[C@H](CO)N1C[C@H](C)[C@H](CN(C)S(=O)(=O)c2ccc(Cl)cc2)OCc2ccccc2-c2c(n(C)c3ccccc23)C1=O,"inconclusive: 6.31 µM [inhibitor, partial curve, poor fit]",–
CCCCCc1cc(=O)oc2c(C(CCN3CCCC(C)C3)c3ccc(N(C)C)cc3)c(OC)cc(OC)c12 (centres undefined),"inconclusive: 28.2 µM [inhibitor, single point]",–
COc1ccccc1C=NN=C(NN=Cc1ccccc1OC)NN=Cc1ccccc1OC,active: 5.01 µM,–
COc1cc(/C=N/NC(=O)CCN2CCN(C(c3ccccc3)c3ccccc3)CC2)ccc1O,–,inactive: -26.2%
Cc1c(CCO)c(=O)[nH]n1S(=O)(=O)c1ccccc1,–,inactive: 6.07%
S=C(NCCc1ccccn1)Nc1ccc(Cl)cc1,–,inactive: -15.5%
CC(C)(C)c1ccc(N2C(=O)CSC2c2cccnc2)cc1 (centres undefined),"inconclusive: 10 µM [inhibitor, single point]",–
COc1ccc(C(=O)Nc2ccccc2C(=O)N/N=C/c2ccccn2)cc1OC,"inconclusive: 2.82 µM [inhibitor, full curve]",–
CSc1ccc(/C=N/NC(=O)CN2CCN(Cc3ccc(C)cc3)CC2)cc1,"inconclusive: 15.8 µM [inhibitor, single point]",–
O=[N+]([O-])c1ccc(C=NNC(=S)NN=Cc2ccc([N+](=O)[O-])cc2)cc1,"inconclusive: 8.91 µM [inhibitor, partial curve, poor fit]",–
COc1cc(/C=C/C(=O)c2ccccc2O)cc(OC)c1OC,–,inactive: 3.77%
CCc1ccccc1NC(=O)C1CCN(S(=O)(=O)c2ccc3[nH]c(=O)ccc3c2)CC1,–,inactive: -4.19%
O=C1[C@H]2[C@@H](c3ccccc3)N[C@]3(CCCN(Cc4ccc(F)cc4)C3=O)[C@H]2C(=O)N1Cc1ccccc1,–,inactive: -5.73%
